{
  "source": "PubChem BioAssay (NCATS)",
  "key": {"[1]": {"assay": "Primary qHTS for small molecule stabilizers of the endoplasmic reticulum resident proteome: Secreted ER Calcium Modulated Protein (SERCaMP) assay (AID 1508630); further: potency means the concentration at half of the fitted maximal effect; on activity change, negative = inhibition: on the % scale 0 is the no-effect control and ±100 the full control effect", "conditions": "SH-SY5Y GLuc-SERCaMP (Gaussia luciferase released on ER calcium loss) secretion, thapsigargin, luminescence; activity change, negative = inhibition: at 38.4 µM (top of the series) unless noted", "procedure,_shortened": "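The SH-SY5Y reporter protocol was run at 3 concentrations up to 38.3 uM (primary) or 11 concentrations (follow-up): 16 h compound, 100 nM thapsigargin for 4 h, then extracellular luciferase luminescence.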"}, "[2]": {"target": "Cytochrome P450 1A2 (Homo sapiens) (UniProt P05177)", "sequence (P05177 whole entry, looked up)": "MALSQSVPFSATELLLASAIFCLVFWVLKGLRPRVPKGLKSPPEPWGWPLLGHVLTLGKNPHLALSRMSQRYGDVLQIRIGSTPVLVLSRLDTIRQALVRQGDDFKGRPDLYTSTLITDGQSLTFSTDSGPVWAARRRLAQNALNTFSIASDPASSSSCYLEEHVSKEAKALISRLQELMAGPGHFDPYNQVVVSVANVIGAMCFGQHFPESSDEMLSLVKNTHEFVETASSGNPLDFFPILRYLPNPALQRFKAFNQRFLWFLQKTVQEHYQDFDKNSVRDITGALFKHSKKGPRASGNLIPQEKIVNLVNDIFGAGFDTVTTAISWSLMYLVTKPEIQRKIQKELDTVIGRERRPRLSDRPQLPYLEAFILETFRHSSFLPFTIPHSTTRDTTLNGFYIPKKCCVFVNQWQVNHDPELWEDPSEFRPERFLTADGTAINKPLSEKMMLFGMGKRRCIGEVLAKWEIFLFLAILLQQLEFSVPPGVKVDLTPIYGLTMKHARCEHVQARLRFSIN", "assay": "p450-cyp1a2 (AID 410; calls by dose curve; further: potency means the concentration at half of the fitted maximal effect;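 on activity change, negative = inhibition: top concentration of the series differs between compounds; -100% = full effect of reference inhibitor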)", "procedure,_shortened": "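Read-out is luminescence from luciferin produced by CYP1A2 demethylation of Luciferin-ME (100uM, at Km). Detection reagent stopped the 60 min NADPH-dependent reaction; signals were normalized to 57 uM furafylline.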"}, "[3]": {"target": "3',5'-cyclic-AMP phosphodiesterase 4B (Homo sapiens) (UniProt Q07343)", "sequence (Q07343 whole entry, looked up)": "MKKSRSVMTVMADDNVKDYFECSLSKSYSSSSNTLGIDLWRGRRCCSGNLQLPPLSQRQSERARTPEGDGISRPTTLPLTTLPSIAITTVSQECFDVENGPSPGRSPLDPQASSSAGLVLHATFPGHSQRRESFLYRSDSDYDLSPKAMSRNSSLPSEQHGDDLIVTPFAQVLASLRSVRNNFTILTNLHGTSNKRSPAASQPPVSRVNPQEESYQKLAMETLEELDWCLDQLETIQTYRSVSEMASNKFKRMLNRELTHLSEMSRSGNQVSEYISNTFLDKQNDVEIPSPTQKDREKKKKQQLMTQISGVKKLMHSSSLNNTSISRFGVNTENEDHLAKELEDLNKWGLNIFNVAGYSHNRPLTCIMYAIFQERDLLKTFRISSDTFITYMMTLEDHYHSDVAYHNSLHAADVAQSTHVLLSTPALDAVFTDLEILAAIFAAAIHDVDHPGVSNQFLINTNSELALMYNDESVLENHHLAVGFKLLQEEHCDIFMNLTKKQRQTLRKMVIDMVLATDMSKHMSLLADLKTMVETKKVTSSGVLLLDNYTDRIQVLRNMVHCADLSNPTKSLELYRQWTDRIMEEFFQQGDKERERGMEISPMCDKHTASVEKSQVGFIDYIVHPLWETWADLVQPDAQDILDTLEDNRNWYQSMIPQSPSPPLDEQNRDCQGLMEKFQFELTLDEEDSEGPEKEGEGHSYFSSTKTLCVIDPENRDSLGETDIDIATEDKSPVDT", "assay": "qHTS Assay for Inhibitors of PDE-IV (AID 607; active means well fitted activation curve with a large enough effect in the main read-out, with a control signal flat, not every such curve was filed as active; inconclusive means small, poorly fitted or top-dose-only effect, or effect the other way, or a change in a side signal; further: potency means the concentration at half of the fitted maximal effect)", "conditions": "HEK293 ACTOne CNG channel cells, membrane potential fluorescence; activation (PDE inhibition): at 22.9 µM (top of the series)", "procedure,_shortened": "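Live HEK293 cells with a modified cyclic nucleotide-gated (CNG) channel report intracellular cAMP via membrane-potential dye fluorescence (ex 535/em 590 nm). Endogenous PDE-IV was targeted. Compounds were tested at up to 22.9 uM final; RO 20-1724 100 uM served as control.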"}, "[4]": {"target": "Tyrosyl-DNA phosphodiesterase 1 (Homo sapiens) (UniProt Q9NUW8)", "sequence (Q9NUW8 whole entry, looked up)": "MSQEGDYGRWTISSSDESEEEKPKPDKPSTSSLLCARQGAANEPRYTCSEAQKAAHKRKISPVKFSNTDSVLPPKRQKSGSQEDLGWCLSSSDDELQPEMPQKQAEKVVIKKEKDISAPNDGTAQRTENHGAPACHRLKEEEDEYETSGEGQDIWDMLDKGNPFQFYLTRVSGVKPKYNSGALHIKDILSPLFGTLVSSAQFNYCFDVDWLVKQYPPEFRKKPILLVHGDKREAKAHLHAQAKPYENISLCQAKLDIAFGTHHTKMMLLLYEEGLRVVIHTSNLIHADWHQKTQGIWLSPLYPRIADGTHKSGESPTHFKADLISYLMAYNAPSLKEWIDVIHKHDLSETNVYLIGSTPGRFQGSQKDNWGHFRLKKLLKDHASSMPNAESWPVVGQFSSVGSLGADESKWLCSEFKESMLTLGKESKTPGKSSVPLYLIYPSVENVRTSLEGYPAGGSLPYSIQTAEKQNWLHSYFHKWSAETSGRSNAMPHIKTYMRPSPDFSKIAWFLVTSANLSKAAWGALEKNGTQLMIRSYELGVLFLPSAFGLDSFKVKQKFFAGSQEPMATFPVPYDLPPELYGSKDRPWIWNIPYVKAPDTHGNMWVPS", "assay": "Confirmation Assay for Inhibitors of Tyrosyl-DNA Phosphodiesterase (TDP1) (AID 489007); further: potency means the concentration at half of the fitted maximal effect; nearly all actives have a fitted effect of over 40% in size", "conditions": "recombinant human TDP1 enzymatic activity, dose-response", "procedure,_shortened": "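Loss of AlphaScreen signal reports Tdp1 cleavage of a dual-labelled DNA substrate. Conditions: 1 nM E. coli-derived enzyme, 15 nM substrate, 15 min compound preincubation, 5 min reaction, 10 min bead incubation, all at room temperature.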"}, "[5]": {"target": "Ubiquitin carboxyl-terminal hydrolase 1 (Homo sapiens) (UniProt O94782)", "sequence (O94782 whole entry, looked up)": "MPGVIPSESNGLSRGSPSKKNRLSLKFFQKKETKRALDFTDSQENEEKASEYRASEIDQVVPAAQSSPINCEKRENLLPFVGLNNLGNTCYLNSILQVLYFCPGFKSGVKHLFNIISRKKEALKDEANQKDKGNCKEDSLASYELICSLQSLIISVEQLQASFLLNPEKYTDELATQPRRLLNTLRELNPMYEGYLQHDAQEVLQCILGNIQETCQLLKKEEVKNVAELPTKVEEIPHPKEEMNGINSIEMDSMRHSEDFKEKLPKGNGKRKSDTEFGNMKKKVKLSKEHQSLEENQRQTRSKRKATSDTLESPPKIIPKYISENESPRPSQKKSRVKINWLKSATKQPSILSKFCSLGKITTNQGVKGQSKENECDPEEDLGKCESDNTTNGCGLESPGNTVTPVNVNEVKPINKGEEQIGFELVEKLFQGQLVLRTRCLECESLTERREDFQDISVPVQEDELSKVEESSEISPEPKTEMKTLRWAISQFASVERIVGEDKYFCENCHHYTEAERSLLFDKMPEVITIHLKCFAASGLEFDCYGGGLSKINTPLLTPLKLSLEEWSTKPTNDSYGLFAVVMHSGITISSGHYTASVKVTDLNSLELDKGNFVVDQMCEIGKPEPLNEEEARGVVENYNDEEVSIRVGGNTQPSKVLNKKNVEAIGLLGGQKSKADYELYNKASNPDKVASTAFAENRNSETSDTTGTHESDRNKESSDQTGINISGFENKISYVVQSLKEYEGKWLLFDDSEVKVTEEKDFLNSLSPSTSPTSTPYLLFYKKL", "assay": "Inhibitors of USP1/UAF1: Pilot qHTS (AID 504865);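 further: rhodamine fluorescence freed from ubiquitin-rhodamine substrate followed over time; top concentration of the series differs between compounds; on the % scale 0 is the no-effect control and ±100 the full control effect; nearly all actives have a fitted effect of over 35% in size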", "procedure,_shortened": "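Deubiquitinase activity followed as kinetic rhodamine fluorescence release from 150 nM Ub-Rho. 1 nM USP1/UAF1 with compound, after 15 min room-temperature preincubation, in HEPES pH 7.8 buffer containing TCEP, EDTA, BSA and Tween-20.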"}, "[6]": {"assay": "AP1 Signaling Pathway (AID 357; active means well fitted curve in either direction with a large enough effect, not every such curve was filed as active; inconclusive means small, poorly fitted or top-dose-only effect, or another doubt; further: top concentration of the series differs between compounds; on the % scale 0 is the no-effect control and ±100 the full control effect)", "conditions": "ME-180 AP-1-bla reporter, EGF-induced, beta-lactamase ratio, 5 h; at 7.69 µM (top of the series) unless noted", "procedure,_shortened": "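Beta-lactamase reporter under AP-1 response element, ME-180 background. Stimulus: EC50 EGF. Compound exposure 5 h, 37 °C. Detection: CCF4, 2.5 h RT, 460/530 nm. Values: AC50 from titration.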"}, "[7]": {"assay": "Stat Signaling Pathway (AID 446; active means well fitted curve in either direction with a large enough effect, not every such curve was filed as active; inconclusive means small, poorly fitted or top-dose-only effect, or another doubt;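 further: ME-180 cervical cancer cells given 40 pM IL-6 alongside compound; SIE-controlled beta-lactamase reporter measured as 460/530 nm FRET emission ratio; top concentration of the series differs between compounds; on the % scale 0 is the no-effect control and ±100 the full control effect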)", "conditions": "ME-180 SIE beta-lactamase reporter, IL-6 stimulated, 5 h; at 7.69 µM (top of the series) unless noted", "procedure,_shortened": "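Overnight-plated ME-180 cells bearing a STAT Inducible Element beta-lactamase reporter; 5 h co-exposure to compound and 40 pM IL-6; values normalized to 300 pM IL-6 and 125 nM JAK inhibitor controls.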"}, "[8]": {"target": "Mitogen-activated protein kinase 10 (Mus musculus) (UniProt Q61831)", "assay": "JNK3 AlphaScreen Assay (AID 530; active means well fitted curve in either direction with a large enough effect, not every such curve was filed as active; inconclusive means small, poorly fitted or top-dose-only effect, or another doubt; further: potency means the concentration at half of the fitted maximal effect)", "conditions": "JNK3 lysate, c-Jun phosphorylation; activity change, negative = inhibition: at 57.1 µM (top of the series)", "procedure,_shortened": "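HepG2 lysate (IL-1b/TNFa pre-activated) + biotin-GST-cJun 1-79 + anti-pSer73 cJun; cpd titration, 15 min RT; ATP 10 uM start; Tris pH 7.6, MgCl2, DTT, vanadate; beads in EDTA buffer; AlphaScreen.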"}, "[9]": {"assay": "qHTS Assay for Identification of Small Molecule Antagonists for Thrombopoietin (TPO) Signaling Pathway (AID 918); further: nearly all actives have a fitted effect of over 60% in size", "conditions": "TPO-dependent cell signaling reporter, antagonist mode; activity change, negative = inhibition: at 38.5 µM (top of the series)", "procedure,_shortened": "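Antagonist mode at EC50 TPO (26 pM) in IL-3-free medium; murine Ba/F3 cells with human TPO receptor and GPIIb-promoter luciferase, 24 hrs at 37 C before luminescent detection.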"}, "[10]": {"target": "Muscarinic acetylcholine receptor M1 (Rattus norvegicus) (UniProt P08482)", "sequence (P08482 whole entry, looked up)": "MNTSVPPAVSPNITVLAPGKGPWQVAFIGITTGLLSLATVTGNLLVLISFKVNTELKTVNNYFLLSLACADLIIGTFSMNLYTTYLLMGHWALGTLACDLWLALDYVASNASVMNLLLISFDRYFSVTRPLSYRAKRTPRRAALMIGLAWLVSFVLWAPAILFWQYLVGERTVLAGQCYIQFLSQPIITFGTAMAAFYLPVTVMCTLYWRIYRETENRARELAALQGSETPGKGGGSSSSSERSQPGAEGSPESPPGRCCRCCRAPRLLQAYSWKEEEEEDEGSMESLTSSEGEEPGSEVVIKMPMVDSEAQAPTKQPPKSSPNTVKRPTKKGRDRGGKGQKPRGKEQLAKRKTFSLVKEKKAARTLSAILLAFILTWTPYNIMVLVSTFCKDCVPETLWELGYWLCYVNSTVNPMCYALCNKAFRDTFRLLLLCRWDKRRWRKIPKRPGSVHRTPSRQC", "assay": "qHTS Assay for Antagonists of Acetylcholine Muscarinic M1 Receptor: Kinetic Measurement of Intracellular Calcium Response (AID 943); further: potency means the concentration at half of the fitted maximal effect; nearly all actives have a fitted effect of over 75% in size", "procedure,_shortened": "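Quantitative HTS in CHO-M1 (rat receptor) cells: 10 min compound exposure ahead of 100 nM carbachol, Fluo-4 fluorescence followed 4 min, value expressed as peak-to-basal ratio.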"}, "[11]": {"target": "DNA repair nuclease/redox regulator APEX1 (Homo sapiens) (UniProt P27695)", "sequence (P27695 whole entry, looked up)": "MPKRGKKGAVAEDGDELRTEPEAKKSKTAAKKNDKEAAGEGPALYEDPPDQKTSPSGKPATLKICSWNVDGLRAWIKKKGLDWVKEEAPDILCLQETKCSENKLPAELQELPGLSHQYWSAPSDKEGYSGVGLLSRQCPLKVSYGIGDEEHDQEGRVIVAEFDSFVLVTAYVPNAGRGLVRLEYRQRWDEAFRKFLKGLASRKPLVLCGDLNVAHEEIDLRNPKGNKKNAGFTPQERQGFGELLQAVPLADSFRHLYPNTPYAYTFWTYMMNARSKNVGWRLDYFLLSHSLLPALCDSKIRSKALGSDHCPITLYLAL", "assay": "qHTS Validation Assay for Inhibitors of the Human Apurinic/apyrimidinic Endonuclease 1 (APE1) (AID 1705;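 further: TAMRA fluorescence gain over two minutes as APE1 cuts a quenched THF abasic duplex; on the % scale 0 is the no-effect control and ±100 the full control effect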)", "procedure,_shortened": "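Activity read as rising fluorescence (598 nm emission, 525 nm excitation) from incision of a TAMRA/BHQ-2 duplex carrying a THF abasic site (50 nM). Compound and enzyme sat 15 min at RT before substrate start; signal change between first and third 60-s reads.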"}, "[12]": {"assay": "qHTS for differential inhibitors of proliferation of Plasmodium falciparum line 7G8 (AID 1815);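 further: potency means the concentration at half of the fitted maximal effect; parasite growth measured after three days of incubation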"}, "[13]": {"assay": "qHTS for differential inhibitors of proliferation of Plasmodium falciparum line D10 (AID 1877);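 further: potency means the concentration at half of the fitted maximal effect; parasites grown with compound for 72 h before DNA staining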"}, "[14]": {"assay": "qHTS for differential inhibitors of proliferation of Plasmodium falciparum line HB3 (AID 1886);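 further: potency means the concentration at half of the fitted maximal effect; parasites grown with compound for 72 h before SYBR Green readout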", "conditions": "Potency: Plasmodium falciparum HB3 proliferation inhibition"}, "[15]": {"assay": "Quantitative high throughput screen for delayed death inhibitors of the malarial parasite plastid, 48 hour incubation (AID 488752); further: on the % scale 0 is the no-effect control and ±100 the full control effect; nearly all actives have a fitted effect of over 65% in size", "procedure,_shortened": "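Cultures: infected erythrocytes at final 2% hematocrit and 0.1% parasitemia in Albumax-supplemented RPMI. Parasites express integrated firefly luciferase. Incubation with compound lasts 48 h before luminescent detection of remaining reporter activity.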"}},
  "note": "The shares of active, inactive and inconclusive entries below differ from those in the screen. For some of these results: Potencies of inconclusive entries are doubtful fits and often do not repeat. Calls of active or inactive are those of the source. Unless noted, the call rests on the fitted dose curve; in most records, active means well fitted curve in the direction sought with a large enough effect; inconclusive means small, poorly fitted or top-dose-only effect, or another doubt; inactive means no such curve, though single readings can be large; an effect the other way counts as inactive or inconclusive. Tags describe the fitted curve by direction and shape.",
  "data": [
    {"smiles": "Nc1c(S(=O)(=O)O)cc(Nc2cccc3ccccc23)c2c1C(=O)c1ccccc1C2=O", "values": [
      {"measurement": "Potency", "setting": "[1]", "result": "inactive"}
    ]},
    {"smiles": "N[C@H](C(=O)O)[C@H](OCc1ccccc1)C(=O)O", "values": [
      {"measurement": "Potency", "setting": "[1]", "result": "inconclusive: 20 µM [inhibitor, full curve]"}
    ]},
    {"smiles": "COC(=O)[C@H]1Cc2c([nH]c3ccccc23)CN1C(=O)COc1ccc2c(C)cc(=O)oc2c1", "values": [
      {"measurement": "Potency", "setting": "[1]", "result": "inactive"}
    ]},
    {"smiles": "COC(=O)C1C(=O)C(C(=O)/C=C/c2ccco2)C(=O)CC1(C)C", "note": "(configuration not stated)", "values": [
      {"measurement": "Potency", "setting": "[1]", "result": "inactive"}
    ]},
    {"smiles": "CC(=O)OCOC(c1ccc2ccccc2c1)P(=O)(OCOC(C)=O)OCOC(C)=O", "note": "(configuration not stated)", "values": [
      {"measurement": "Potency", "setting": "[1]", "result": "inactive"}
    ]},
    {"smiles": "Cc1ccccc1-c1cncnc1N1CCNCC1", "values": [
      {"measurement": "Potency", "setting": "[1]", "result": "inconclusive: 10 µM [inhibitor, partial curve, poor fit]"}
    ]},
    {"smiles": "CCNc1ncc2ncc(=O)n(C)c2n1", "values": [
      {"measurement": "Potency", "setting": "[1]", "result": "inactive"}
    ]},
    {"smiles": "O=Cc1c2[nH]c3ccccc3c2cc2[nH]c3ccccc3c12", "values": [
      {"measurement": "Potency", "setting": "[1]", "result": "inconclusive: 31.6 µM [inhibitor, partial curve, poor fit]"}
    ]},
    {"smiles": "O=C(Nc1ccccc1)N1CC2(CCN(C(=O)c3cnccn3)CC2)C1", "values": [
      {"measurement": "Potency", "setting": "[1]", "result": "inactive"}
    ]},
    {"smiles": "C[C@H](NC[C@H](O)CP(=O)(O)Cc1ccccc1)c1ccc(Cl)c(Cl)c1", "values": [
      {"measurement": "Potency", "setting": "[1]", "result": "inconclusive: 100 µM [inhibitor, full curve]"}
    ]},
    {"smiles": "O=C(/C=C/c1ccccc1)NC(NC(=S)Nc1cccc2cccnc12)C(Cl)(Cl)Cl", "note": "(configuration not stated)", "values": [
      {"measurement": "Potency", "setting": "[1]", "result": "inconclusive: 28.2 µM [inhibitor, single point]"}
    ]},
    {"smiles": "C[C@@H]1C(=O)CC2C(C)(C)CCC[C@]2(C)[C@@]1(O)CCc1ccoc1", "note": "(some centres not stated)", "values": [
      {"measurement": "Potency", "setting": "[1]", "result": "inactive"}
    ]},
    {"smiles": "CCCCCCCC/C=C\\CCCCCCCCOC[C@H](COP(=O)([O-])OCC[N+](C)(C)C)OC(C)=O", "values": [
      {"measurement": "activity change, negative = inhibition", "setting": "[1]", "result": "inactive: -15.7% [at 3.88 µM]"}
    ]},
    {"smiles": "Cc1cc2nc3c(=O)[nH]c(=O)nc-3n(C)c2cc1C=O", "values": [
      {"measurement": "Potency", "setting": "[1]", "result": "inconclusive: 28.2 µM [inhibitor, single point]"}
    ]},
    {"smiles": "CC12CCC3C(CCC4CC(O)CCC43C)C1CC=C2c1ccccc1", "note": "(configuration not stated)", "values": [
      {"measurement": "Potency", "setting": "[1]", "result": "inconclusive: 31.6 µM [inhibitor, partial curve, poor fit]"}
    ]},
    {"smiles": "CC#CC(=O)Nc1cc2c(Nc3ccc(F)c(Cl)c3)ncnc2cn1", "values": [
      {"measurement": "Potency", "setting": "[1]", "result": "inconclusive: 0.891 µM [inhibitor, full curve, poor fit]"}
    ]},
    {"smiles": "COc1ncc2nc(-c3ccc(Cl)cc3)c(=O)n(C[C@H]3CCCO3)c2n1", "values": [
      {"measurement": "Potency", "setting": "[1]", "result": "inconclusive: 10 µM [inhibitor, single point]"}
    ]},
    {"smiles": "CCOC(=O)C1OC1C(=O)NC(CC(C)C)C(=O)NCCC(C)C", "note": "(configuration not stated)", "values": [
      {"measurement": "Potency", "setting": "[1]", "result": "inconclusive: 8.91 µM [inhibitor, full curve, poor fit]"}
    ]},
    {"smiles": "CCCCC[C@H](O)/C=C/[C@@H]1[C@H]2C/C(=C/CCCC(=O)O)C[C@H]2C[C@H]1O", "values": [
      {"measurement": "Potency", "setting": "[1]", "result": "inconclusive: 3.98 µM [inhibitor, partial curve, poor fit]"}
    ]},
    {"smiles": "O=C(O)C(Cc1ccc2c(c1)oc1ccccc12)NCP(=O)(O)O", "note": "(configuration not stated)", "values": [
      {"measurement": "Potency", "setting": "[1]", "result": "inconclusive: 10 µM [inhibitor, partial curve, poor fit]"}
    ]},
    {"smiles": "COC(=O)N1CCC2(CCCN(Cc3cc(C(F)(F)F)cc(C(F)(F)F)c3)C2)CC1", "values": [
      {"measurement": "Potency", "setting": "[1]", "result": "inconclusive: 10 µM [inhibitor, partial curve, poor fit]"}
    ]},
    {"smiles": "N[C@@H](C(=O)O)c1ccc(C(=O)O)cc1", "values": [
      {"measurement": "Potency", "setting": "[2]", "result": "inconclusive: 39.8 µM [decreasing]"}
    ]},
    {"smiles": "N[C@@H](C(=O)O)c1ccc(C(=O)O)c(C(=O)O)c1", "values": [
      {"measurement": "Potency", "setting": "[3]", "result": "inconclusive: 19 µM [inhibitor, single point]"},
      {"measurement": "Potency", "setting": "[4]", "result": "inconclusive: 50.1 µM [inhibitor, partial curve, poor fit]"},
      {"measurement": "Potency", "setting": "[5]", "result": "inactive"}
    ]},
    {"smiles": "COc1ccc(-n2c(=O)c(-c3ccc(Cl)cc3)nc3cnc(N(C)C)nc32)cc1", "values": [
      {"measurement": "activity change, negative = inhibition", "setting": "[6]", "result": "inconclusive: 78.8% [activator]"},
      {"measurement": "activity, negative = inhibition", "setting": "[7]", "result": "inconclusive: 140% [activator]"}
    ]},
    {"smiles": "COc1ccc(C(=O)N2CCC3(CC2)CN(c2ccncc2)C3)cc1", "values": [
      {"measurement": "Potency", "setting": "[2]", "result": "inactive"},
      {"measurement": "Potency", "setting": "[8]", "result": "inconclusive: 0.0398 µM [activator, full curve]"}
    ]},
    {"smiles": "NC1(C(=O)O)CC1", "values": [
      {"measurement": "activity, negative = inhibition", "setting": "[7]", "result": "inconclusive: -45.8% [inhibitor] [at 38 µM]"},
      {"measurement": "activity change, negative = inhibition", "setting": "[9]", "result": "inconclusive: 4.41% [phenotype inactive]"},
      {"measurement": "Potency", "setting": "[10]", "result": "inconclusive: 28.2 µM [inhibitor, partial curve, poor fit]"},
      {"measurement": "Potency", "setting": "[11]", "result": "inactive"},
      {"measurement": "Potency", "setting": "[12]", "result": "inconclusive: 17.8 µM [inhibitor, single point]"},
      {"measurement": "Potency", "setting": "[13]", "result": "inconclusive: 11.2 µM [inhibitor, single point]"},
      {"measurement": "Potency", "setting": "[14]", "result": "inconclusive: 12.6 µM [inhibitor, single point]"},
      {"measurement": "Potency", "setting": "[15]", "result": "inactive"}
    ]}
  ]
}
